Experimental data taken from PubChem BioAssay AID1745853 (National Center for Advancing Translational Sciences (NCATS), 2022).
This is one part of the list. The main result of the screen is listed elsewhere. These columns were measured beside it and carry no call.

Columns and labels:
Assay in all cases: Primary Screen for Target Class Profiling of Small Molecule Inhibitors of Methyltransferases
[1] = biological target: Glycine N-methyltransferase (Homo sapiens) (UniProt Q14749); conditions: purified enzyme, MTase-Glo SAH luminescence; measured here: GNMT inhibition; at 40 µM; stronger effect = lower value
Method in brief: (§1)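 Each enzyme was assayed with SAM and its substrate. SAH formation detected by MTase-Glo luminescence; single-point 40 uM screen[…].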

[2] = biological target: Guanidinoacetate N-methyltransferase (Homo sapiens) (UniProt Q14353); conditions: purified enzyme, MTase-Glo SAH luminescence; measured here: GAMT inhibition; at 40 µM; stronger effect = lower value
Method in brief: as §1

[3] = biological target: Histamine N-methyltransferase (Homo sapiens) (UniProt P50135); conditions: purified enzyme, MTase-Glo SAH luminescence; measured here: HNMT inhibition; at 40 µM; stronger effect = lower value
Method in brief: as §1

[4] = biological target: Nicotinamide N-methyltransferase (Homo sapiens) (UniProt P40261); conditions: purified enzyme, MTase-Glo SAH luminescence; measured here: NNMT inhibition; at 40 µM; stronger effect = lower value
Method in brief: as §1

[5] = biological target: Phenylethanolamine N-methyltransferase (Homo sapiens) (UniProt P11086); conditions: purified enzyme, MTase-Glo SAH luminescence; measured here: PNMT inhibition; at 40 µM; stronger effect = lower value
Method in brief: as §1
% is set by controls: 0 for no effect and ±100 for the full control effect.

Structure (SMILES) | activity change, negative = inhibition [1] [%] | activity change, negative = inhibition [2] [%] | activity change, negative = inhibition [3] [%] | activity change, negative = inhibition [4] [%] | activity change, negative = inhibition [5] [%]
CCN(CC)c1nc2c(-c3cccc(F)c3)nnn2c2ccc(Cl)cc12 | 4.37 | 4.07 | 4.01 | 10.9 | -0.519
CN(CC(=O)Nc1cccc(F)c1)S(=O)(=O)c1ccc2[nH]c3c(c2c1)CCCC3 | -1.04 | 4.42 | 5.39 | -0.38 | 1.89
Cc1cc(C)cc(NC(=O)Cn2nc3n(C(C)C)c(=O)c4ccc(C(=O)NC(C)C)cc4n3c2=O)c1 | 4.8 | 1.16 | 6.43 | -1.21 | 4.27
Cc1ccc2c(c1)c(-n1cccc1)c1n2CC(C)(C(=O)NC2CCC(C)CC2)N(Cc2ccco2)C1=O (stereo not given) | -7.24 | -1.74 | -2.73 | -5.19 | -5.07
CN(Cc1ccccc1)Cc1nnc(C(=O)N2CCC[C@@H]2c2cccc(F)c2)n1-c1ccccc1 | -0.469 | 2.55 | 1.94 | -8.32 | -0.945
Cc1nn(C)c(C)c1CCC(=O)NCCc1ncc(C)n1Cc1ccc(F)cc1 | -2.35 | -0.174 | -22.4 | -9.13 | 11.6
CC(C)CCn1c(=O)c2ccccc2n2c(CCC(=O)N3CCN(Cc4ccccc4)CC3)nnc12 | -6.22 | 0.985 | -1.2 | -42.1 | 1.68
CCCn1c(=O)c2ccc(C(=O)NC3CCCC3)cc2n2c(=O)n(CC(=O)Nc3cccc(F)c3)nc12 | 1.39 | 4.88 | 2.17 | -0.173 | 2.69
CC1(C(=O)NC2CCCCC2)Cn2c(cc3occc32)C(=O)N1Cc1ccco1 (stereo not given) | -5.85 | 3.95 | 0.947 | 1.05 | -0.813
CC(c1n[nH]c(=O)n1CCC(=O)O)n1cccn1 (stereo not given) | -2.41 | 3.81 | 1.54 | -0.769 | 18
CCc1ccc(C(=O)N2CCC([C@@H]3CNC[C@H]3CO)CC2)cc1 | -1 | 0.643 | -3.23 | 3.46 | -2.49
c1ccc(CCCN2CC[C@H](c3nc4ccccc4s3)C2)cc1 | -4.97 | -0.922 | -8.08 | -5.33 | 7.35
O=C(NC1CCCCC1)N1C2CCC1CN(c1ccc(C(F)(F)F)cc1)C2 | 0.763 | -0.543 | 2.97 | -2.15 | -4.16
COc1cccc(N2C(=O)c3cc4ccccc4n3CC2(C)C(=O)NCc2ccccc2OC)c1 (stereo not given) | -5.83 | 2.92 | -4.52 | -10.5 | -8.4
Cc1ccc(Cl)cc1NS(=O)(=O)c1ccc2c(c1)n(C)c(=O)n2C | 4.48 | 0 | 4.4 | -1 | 5.34
CCCN1C(=O)c2c(C(=O)NCc3cccc(OC)c3)ncn2CC1(C)C(=O)NCc1ccc(OC)cc1 (stereo not given) | -3.18 | 2.48 | 0.369 | -1.24 | 0.991
Cc1c(Cl)cccc1NS(=O)(=O)c1ccc2c(c1)NC(=O)CC(=O)N2 | -3.98 | 3.78 | 6.52 | 3.04 | -3.27
Cc1nc(NC(C)c2nc(-c3cccnc3)no2)c2cccnc2n1 (stereo not given) | -5.69 | -7.21 | -4.12 | -8.1 | -8.51
CCOC(=O)c1cc2n(n1)CC(C)(C(=O)NC1CCCCC1)N(c1ccc(C)c(Cl)c1)C2=O (stereo not given) | -6.07 | -0.298 | -9.27 | -8.8 | -0.603

Structure (SMILES) | activity change, negative = inhibition [1] [%] | activity change, negative = inhibition [2] [%] | activity change, negative = inhibition [3] [%] | activity change, negative = inhibition [4] [%] | activity change, negative = inhibition [5] [%]
Cc1cccc(N2C(=O)c3cc4occc4n3CC2(C)C(=O)NC2CCCCCC2)c1C (stereo not given) | -3.07 | 0 | 5.09 | 6.78 | 1.24
COc1cccc(CN2C(=O)c3cc4sccc4n3CC2(C)C(=O)NC2CCCCC2)c1 (stereo not given) | 2.96 | 0 | 0.051 | -1.14 | 0.042
CC(=O)NCC1CN(C(=O)NCc2ccc(OC(F)(F)F)cc2)CC12CCCCC2 (stereo not given) | -0.491 | -0.77 | 2.92 | -9.28 | 3.15
Cc1ccc(Cn2c(=O)c3ccccc3n3c(=O)n(Cc4ccccc4)nc23)cc1 | 0.023 | 3.63 | 2.35 | 1.99 | -2.05
O=C(O)CC1(CC(=O)N[C@@H]2C=C(C(=O)N[C@H]3CCCNC3=O)C[C@@H](O)[C@@H]2O)CCCC1 | -4.86 | -6.68 | -1.53 | -2.22 | -7.21
O=C1OCCC1CCC(=O)N1CCc2c(nc(-c3ccccc3)[nH]c2=O)C1 (stereo not given) | -6.52 | -10 | -3.88 | -14.6 | -22.5
CC(=O)c1ccc(NC(=O)N2C[C@@H]3C[C@H](C2)c2ccc(NC(=O)c4ccc(F)cc4)c(=O)n2C3)cc1 | -7.69 | -8.9 | -6.58 | -12.6 | -8.35
CCOc1ccc(CN2C(=O)c3cc4sccc4n3CC2(C)C(=O)NC2CCCCC2)cc1 (stereo not given) | 3.74 | 3.37 | -0.765 | 6.43 | 3
CC1(C(=O)NC2CCCCCC2)Cn2c(ccc2-c2ccco2)C(=O)N1Cc1cccc(F)c1 (stereo not given) | -1.34 | 4 | -0.582 | -5.18 | -3.04
COc1cccc(CNC(=O)C(C)n2ccc3cc(S(=O)(=O)N4CCCC4)ccc32)c1OC (stereo not given) | 6.28 | 0 | 2.06 | 6.4 | 1.93
CN(C)[C@H]1CCCCN(C(=O)c2cn(CCN3CCNCC3)nn2)C1 | -5.66 | -10.4 | -3.05 | -7.38 | -3.89
Cc1cccc(NC(=O)CSc2nnc3n(CC(C)C)c(=O)c4ccc(Cl)cc4n23)c1 | -0.822 | 2.86 | 2.59 | -0.439 | -3.62
Cc1ccc(-c2n[nH]n3c2nc(=O)c2ccc(C(=O)NCCc4cccs4)cc23)cc1 | -12.7 | 4.51 | -3.09 | -2.43 | -1.43
COc1ccc(CNC(=O)Cn2c(=O)oc3cc(S(=O)(=O)NCc4ccccc4)ccc32)cc1 | 12.3 | 2.23 | 12.3 | -1.87 | 7.92
CC1CC(C)CN(S(=O)(=O)c2ccc3c(c2)oc(=O)n3CC(=O)NCc2ccco2)C1 (stereo not given) | -8.67 | 4.62 | 1.07 | -10.7 | -7.69
COC(=O)c1cc2n(n1)CC(C)(C(=O)NC1CCC(C)CC1)N(Cc1ccc(OC)cc1)C2=O (stereo not given) | 5.36 | 0.967 | 7.49 | 7.14 | 4.76
CCN1CCN(C(=O)c2cn3cc(-c4cccnc4)sc3n2)CC1 | -8.07 | -10.7 | -6.05 | -14.7 | -6.89
COc1cc(OC)cc(C(=O)Nc2ccc(Cl)c(-c3nc4ccc(N(C)C)cc4[nH]3)c2)c1 | -10 | -21.8 | -1.04 | -51.8 | -15.9
COc1ccc(OC)c(CCN2C(=O)c3cc4ccccc4n3CC2(C)C(=O)NCc2ccccc2)c1 (stereo not given) | -7.77 | 3.78 | 0.613 | 2.26 | -2.38
